± gives the uncertainty stated by the source. The sequences are guide strands of siRNAs; only the seed at positions 2 to 7 varies.
What was measured:
H460 = test: cell viability relative to lipid-only control; higher = less toxic; conditions: concentration: 10 nM; 96 h; Homo sapiens
M565 = test: as above; conditions: concentration: 10 nM; 96 h; Mus musculus
HeyA8 = test: as above; conditions: concentration: 10 nM; 96 h; Homo sapiens
3LL = test: cell viability relative to siNT1 control; HeyA8 human ovarian and H460 human lung cancer; M565 mouse liver and 3LL mouse lung cancer; siNT1 is a non-toxic control siRNA; higher = less toxic; conditions: concentration: 10 nM; 96 h; Mus musculus
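Throughout, for cell viability relative to lipid-only control: reverse lipid transfection in 384-well plates, in triplicate, of duplexes on a non-toxic 19mer backbone with passenger strand 2′-O-methylated at positions 1 and 2, luminescence viability read-out.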
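Throughout, for cell viability relative to siNT1 control: Luminescence-based viability of cells reverse transfected in 384-well plates with lipid-complexed siRNAs built on a non-toxic 19mer backbone whose passenger strand carries 2′-O-methyl groups at positions 1 and 2, triplicates.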

Sequence | cell viability (H460) | cell viability (M565) | cell viability (HeyA8) | cell viability (3LL)
UAUGUGAACAUGUAAACCAAA | 61.2 ± 1% | 76.2 ± 16% | 105 ± 6.4% | 117 ± 12%
UUCGGGAACAUGUAAACCAAA | 73.1 ± 8.3% | 75.9 ± 3.2% | 87.1 ± 10% | 98 ± 20%
UGUGACAACAUGUAAACCAAA | 52.8 ± 3% | 66.6 ± 14% | 72.1 ± 9.3% | 57.1 ± 6.3%
UAUUCGCACAUGUAAACCAAA | 61.5 ± 6% | 69.8 ± 1.7% | 70.4 ± 11% | 71.9 ± 20%
UGACUAGACAUGUAAACCAAA | 40.4 ± 5.6% | 25.2 ± 5% | 53.8 ± 3.6% | 58.8 ± 9.3%
UAGUAUAACAUGUAAACCAAA | 74.7 ± 12% | 71.2 ± 1.7% | 84.2 ± 3.6% | 91.5 ± 5.4%
UAAGGAGACAUGUAAACCAAA | 64.5 ± 4.3% | 58.3 ± 1.5% | 89.8 ± 4.3% | 84.2 ± 6.8%
UAUCUAUACAUGUAAACCAAA | 63.5 ± 5.4% | 94.3 ± 13% | 99.1 ± 7.5% | 120 ± 14%
UUACUAGACAUGUAAACCAAA | 69.4 ± 2.1% | 64 ± 2.9% | 82.5 ± 2.9% | 87.8 ± 7.1%
UUUCGGUACAUGUAAACCAAA | 56.9 ± 3.5% | 48.9 ± 6% | 82.1 ± 2% | 91.8 ± 7.4%
UGAUUAGACAUGUAAACCAAA | 70.9 ± 5.7% | 64.4 ± 8.5% | 82.3 ± 13% | 70.6 ± 14%
UAACAAUACAUGUAAACCAAA | 62.2 ± 8.8% | 75.8 ± 5% | 92.9 ± 8% | 91.9 ± 7.6%
UAAUCAGACAUGUAAACCAAA | 78.8 ± 1.7% | 82 ± 3.6% | 64.1 ± 1.6% | 111 ± 18%
UUCACAUACAUGUAAACCAAA | 29.5 ± 3.9% | 68.3 ± 8.3% | 78.2 ± 11% | 71.1 ± 17%
UAAUUGCACAUGUAAACCAAA | 46.4 ± 4.9% | 21.7 ± 6.9% | 49 ± 2% | 17.4 ± 5.8%
UGGGCCCACAUGUAAACCAAA | 37.9 ± 3% | 11.5 ± 1.5% | 24.2 ± 1.8% | 13.3 ± 4.6%
UAGUUUAACAUGUAAACCAAA | 64.9 ± 7.5% | 62.3 ± 5.8% | 70 ± 7.4% | 93.5 ± 6.7%
UUUGCUGACAUGUAAACCAAA | 79.3 ± 7.1% | 59 ± 5.7% | 94.5 ± 4.5% | 79.4 ± 2.1%
UGUGUCCACAUGUAAACCAAA | 34.6 ± 5.8% | 22.9 ± 4% | 37.4 ± 3% | 29.8 ± 14%
UCGGCAUACAUGUAAACCAAA | 58 ± 5.9% | 32.1 ± 4.4% | 56.9 ± 2.3% | 71 ± 20%

Sequence | cell viability (H460) | cell viability (M565) | cell viability (HeyA8) | cell viability (3LL)
UCCCAUUACAUGUAAACCAAA | 42.9 ± 8.5% | 65.4 ± 15% | 80.6 ± 8.4% | 106 ± 30%
UAUAGUCACAUGUAAACCAAA | 77.6 ± 4.8% | 96.5 ± 12% | 101 ± 5.3% | 100 ± 7.5%
UAGGUACACAUGUAAACCAAA | 60.2 ± 8.1% | 14.4 ± 2.5% | 48.2 ± 5.2% | 32.2 ± 1%
UUCAACGACAUGUAAACCAAA | 69 ± 8.3% | 84.3 ± 13% | 83.4 ± 9.8% | 95.5 ± 20%
UACCAGUACAUGUAAACCAAA | 56.5 ± 4.1% | 13.9 ± 2% | 10.5 ± 2.6% | 51 ± 9%
UAAUUCAACAUGUAAACCAAA | 92.4 ± 1.7% | 67.5 ± 19% | 91.4 ± 6.8% | 109 ± 6.4%
UAAGGUGACAUGUAAACCAAA | 99.3 ± 8.9% | 48.4 ± 3.7% | 88.4 ± 9.4% | 80.3 ± 5.1%
UCUCGGAACAUGUAAACCAAA | 53.1 ± 1.3% | 66.7 ± 7.2% | 85.1 ± 7.9% | 99.2 ± 24%
UGUUGUAACAUGUAAACCAAA | 58 ± 7.7% | 35.4 ± 6.1% | 57.1 ± 9.2% | 99.2 ± 10%
UGCAAUCACAUGUAAACCAAA | 59.6 ± 8.4% | 51.5 ± 3.2% | 50.2 ± 3.1% | 61 ± 1.7%
UGUAAUCACAUGUAAACCAAA | 34.9 ± 2.7% | 21.3 ± 2.8% | 22 ± 2.4% | 59 ± 5.7%
UUCGUACACAUGUAAACCAAA | 65.4 ± 15% | 46.9 ± 9.2% | 72.2 ± 4.8% | 74.1 ± 10%
UUCUUUGACAUGUAAACCAAA | 87.9 ± 6.1% | 83.4 ± 6.7% | 91.4 ± 5% | 91.3 ± 9%
UGGAGGUACAUGUAAACCAAA | 4.65 ± 0.41% | 2.86 ± 1.2% | 2.1 ± 0.13% | 7.25 ± 2.5%
UUGACACACAUGUAAACCAAA | 63.9 ± 4.3% | 39.8 ± 13% | 76.1 ± 8% | 47.8 ± 2.7%
UGGGUGUACAUGUAAACCAAA | 21.2 ± 0.79% | 18.4 ± 2.2% | 2.67 ± 0.22% | 51.4 ± 10%
UUUUUUUACAUGUAAACCAAA | 70.6 ± 14% | 111 ± 18% | 80.8 ± 3.2% | 91 ± 8%
UUAUAGCACAUGUAAACCAAA | 15.9 ± 0.76% | 12.1 ± 1.7% | 31.1 ± 6.5% | 16 ± 3%
UUGAGUGACAUGUAAACCAAA | 62.9 ± 9.3% | 60.5 ± 6.1% | 86 ± 6.9% | 85 ± 3.5%
UACUGGCACAUGUAAACCAAA | 16.5 ± 0.71% | 7.59 ± 1.9% | 21.8 ± 1.9% | 8.11 ± 0.84%

Sequence | cell viability (H460) | cell viability (M565) | cell viability (HeyA8) | cell viability (3LL)
UGCUAAUACAUGUAAACCAAA | 12.3 ± 2.1% | 57.1 ± 3% | 4.04 ± 0.18% | 27.7 ± 4.8%
UGUACGCACAUGUAAACCAAA | 66 ± 6.1% | 61 ± 3.3% | 27.3 ± 25% | 80.5 ± 1.8%
UUGGCUUACAUGUAAACCAAA | 88.8 ± 3.7% | 72.9 ± 7.2% | 93.7 ± 13% | 93.3 ± 4.6%
UCGUUUUACAUGUAAACCAAA | 94.4 ± 30% | 75.8 ± 11% | 76.8 ± 1.6% | 93.7 ± 12%
UGCUUCUACAUGUAAACCAAA | 81.7 ± 17% | 32.8 ± 5% | 23.7 ± 0.74% | 56.6 ± 12%
UAAUACCACAUGUAAACCAAA | 75 ± 3.4% | 71.1 ± 3.2% | 61.6 ± 5.8% | 36 ± 2.4%
UUGAAUGACAUGUAAACCAAA | 99.6 ± 9.2% | 77.8 ± 18% | 91.4 ± 9.4% | 91.3 ± 11%
UAAUCUCACAUGUAAACCAAA | 61 ± 14% | 96.4 ± 18% | 64.9 ± 4.9% | 102 ± 8.2%
UCCAGAGACAUGUAAACCAAA | 74.5 ± 14% | 41.5 ± 8.1% | 61.2 ± 2.4% | 103 ± 16%
UGGUUGUACAUGUAAACCAAA | 66.5 ± 3.1% | 77.2 ± 14% | 22.6 ± 1.1% | 84.7 ± 5.9%
UAGUACGACAUGUAAACCAAA | 60.4 ± 9.1% | 101 ± 5.7% | 75.2 ± 4.7% | 80.8 ± 14%
UGUCACCACAUGUAAACCAAA | 22.4 ± 0.38% | 12.5 ± 1.9% | 15.2 ± 1.9% | 6.54 ± 0.44%
UCCGGGGACAUGUAAACCAAA | 54.6 ± 2.8% | 58.8 ± 3.6% | 40.5 ± 4.6% | 56.7 ± 9.7%
UAUUUACACAUGUAAACCAAA | 86.5 ± 3.1% | 101 ± 22% | 97.1 ± 12% | 104 ± 24%
UGUACAGACAUGUAAACCAAA | 82.7 ± 12% | 52.5 ± 12% | 78.6 ± 4.7% | 88.5 ± 5.9%
UCAAGGCACAUGUAAACCAAA | 27.9 ± 4.2% | 3.51 ± 1.9% | 13.7 ± 1.5% | 14.5 ± 0.77%
UAUUCACACAUGUAAACCAAA | 63.7 ± 6.8% | 83.7 ± 5.6% | 87 ± 10% | 64.1 ± 15%
UCUCAUGACAUGUAAACCAAA | 24.6 ± 4.6% | 74.8 ± 23% | 89.2 ± 4.5% | 103 ± 15%
UCCGUUUACAUGUAAACCAAA | 63.3 ± 7.1% | 80.6 ± 17% | 61.7 ± 6.4% | 75.4 ± 17%
UGAAACGACAUGUAAACCAAA | 82.1 ± 15% | 75.3 ± 8.4% | 87.4 ± 2.1% | 96.7 ± 14%
